The record followed here is the supplement of paper PMC8821664.

In this test the test system is Beas-2B AQP5-HiBiT reporter cells. Nature of the test: AQP5-HiBiT luminescence relative to vehicle (ratio to vehicle); higher = higher AQP5-HiBiT protein abundance. The conditions noted are these: 10 µM; 18 h. (The HiBiT peptide binds its large partner to form an active luciferase.)

Counter-ions that a name gives are not always drawn. The list shows a part of the results. Repeats are few or missing, and single values can be far off.
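Note: monoclonal Beas-2B line stably carrying CMV promoter-driven AQP5-HiBiT, 5,000 cells per well in 384-well plates, lytic HiBiT plus LgBiT NanoLuc luminescence, FDA-approved drug library screen.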

On to `C#Cc1cccc(Nc2ncnc3cc(OCCOC)c(OCCOC)cc23)c1` [Erlotinib], for which the AQP5-HiBiT luminescence stood at 0.361.

On to `CC(C)c1nc(N(C)S(C)(=O)=O)nc(-c2ccc(F)cc2)c1/C=C/[C@@H](O)C[C@@H](O)CC(=O)O` [Rosuvastatin], for which the AQP5-HiBiT luminescence came out at 1.04.

`Cc1cnc(NC(=O)C2=C(O)c3ccccc3S(=O)(=O)N2C)s1` [Meloxicam]: the AQP5-HiBiT luminescence turned out to be 1.21.

With `C[C@@H](O[C@H]1OCCN(Cc2n[nH]c(=O)[nH]2)[C@H]1c1ccc(F)cc1)c1cc(C(F)(F)F)cc(C(F)(F)F)c1` [Aprepitant], the AQP5-HiBiT luminescence was determined as 1.16.

For `OC(CCN1CCCCC1)(c1ccccc1)C1CCCCC1` (racemic) [DL-trihexyphenidyl hydrochloride], the AQP5-HiBiT luminescence amounted to 1.66.

Regarding `O=C(CCCCC(=O)Nc1c(I)cc(I)c(C(=O)O)c1I)Nc1c(I)cc(I)c(C(=O)O)c1I` [Iodipamide], the AQP5-HiBiT luminescence came to 0.77.

Consider `COc1ccc2[nH]c(SCc3ncc(C)c(OC)c3C)nc2c1` [Omeprazole sulfide], for which the AQP5-HiBiT luminescence was 0.86.

In the case of `O=c1[nH]cnc2c1ncn2[C@H]1CC[C@@H](CO)O1` [Didanosine], the AQP5-HiBiT luminescence was determined as 0.56.

Turning to `CC(=O)Nc1cccc(-n2c(=O)n(C3CC3)c(=O)c3c(Nc4ccc(I)cc4F)n(C)c(=O)c(C)c32)c1`, the AQP5-HiBiT luminescence was 0.762.

On to `CCN(CC)C(=O)C1(c2ccccc2)CC1CN` (stereo unspecified) [Milnacipran hydrochloride], for which the AQP5-HiBiT luminescence amounted to 1.14.

Consider `NCCCCCC(=O)O` [6-Aminocaproic acid], for which the AQP5-HiBiT luminescence stood at 0.86.

For `C#CCN[C@@H]1CCc2ccccc21` [Rasagiline], the AQP5-HiBiT luminescence was found to be 1.11.

In the case of `CC(C)[C@H](N)C(=O)OCCOCn1cnc2c(=O)nc(N)[nH]c21` [Valacyclovir hydrochloride], the AQP5-HiBiT luminescence was 0.755.

With `NC[C@H]1O[C@H](O[C@H]2[C@H](O)[C@@H](O[C@H]3O[C@H](CO)[C@@H](O)[C@H](N)[C@H]3O)[C@H](N)C[C@@H]2N)[C@H](O)[C@@H](O)[C@@H]1O` [Kanamycin sulfate], the AQP5-HiBiT luminescence was determined as 1.59.

On to `Cc1cc(NS(=O)(=O)c2ccc(N)cc2)no1` [Sulfamethoxazole], for which the AQP5-HiBiT luminescence is 0.756.

As for `Cc1ccc(/C(=C\CN2CCCC2)c2ccccn2)cc1` [Triprolidine hydrochloride], the AQP5-HiBiT luminescence came out at 0.819.

Regarding `CC(CN1c2ccccc2Sc2ccccc21)N(C)C` (stereo unspecified) [Promethazine hydrochloride], the AQP5-HiBiT luminescence is 1.24.

As for `N#CC1(c2ccc(NC(=O)c3cccnc3NCc3ccncc3)cc2)CCCC1` [Apatinib], the AQP5-HiBiT luminescence was 0.464.

On to `CCCNCC(O)COc1ccccc1C(=O)CCc1ccccc1` (stereo unspecified) [Propafenone], for which the AQP5-HiBiT luminescence stood at 1.24.

Consider `CC12CC3CC(C)(C1)CC(N)(C3)C2` [Memantine hydrochloride], for which the AQP5-HiBiT luminescence is 1.17.

Consider `Cc1cccc(Nc2ccccc2C(=O)O)c1C` [Mefenamic acid], for which the AQP5-HiBiT luminescence was 1.46.

On to `C[C@@H]1[C@H](O)[C@@H](C)/C=C/C=C/C=C/C=C/C=C/C=C/C=C/[C@H](O[C@@H]2O[C@H](C)[C@@H](O)[C@H](N)[C@@H]2O)C[C@@H]2O[C@](O)(C[C@@H](O)C[C@@H](O)[C@H](O)CC[C@@H](O)C[C@@H](O)CC(=O)O[C@H]1C)C[C@H](O)[C@H]2C(=O)O` [Amphotericin B], for which the AQP5-HiBiT luminescence amounted to 0.858.

With `CC(C)[C@H](N)C(=O)OCC(CO)OCn1cnc2c(=O)nc(N)[nH]c21` (stereo partly specified) [Valganciclovir hydrochloride], the AQP5-HiBiT luminescence turned out to be 0.779.

On to `O=P(O)(O)C(O)(Cn1ccnc1)P(=O)(O)O` [Zoledronic Acid], for which the AQP5-HiBiT luminescence was 0.859.

`CC(O)(P(=O)(O)O)P(=O)(O)O` [Etidronate]: the AQP5-HiBiT luminescence amounted to 1.02.

`CCc1cc2c(cc1CC)CC(NC[C@H](O)c1ccc(O)c3[nH]c(=O)ccc13)C2` [Indacaterol maleate]: the AQP5-HiBiT luminescence worked out at 1.15.

In the case of `CN1CC(=O)N2[C@H](c3ccc4c(c3)OCO4)c3[nH]c4ccccc4c3C[C@@H]2C1=O` [Cialis], the AQP5-HiBiT luminescence came out at 1.16.

On to `COc1nc2ccc(Br)cc2cc1[C@@H](c1ccccc1)[C@@](O)(CCN(C)C)c1cccc2ccccc12`, for which the AQP5-HiBiT luminescence was found to be 1.02.

Consider `C[C@H]1c2cccc(O)c2C(=O)C2=C(O)[C@]3(O)C(=O)C(C(N)=O)=C(O)[C@@H](N(C)C)[C@@H]3[C@@H](O)[C@@H]21` [Doxycycline hyclate], for which the AQP5-HiBiT luminescence was determined as 0.837.

For `CCCNC(=O)NS(=O)(=O)c1ccc(Cl)cc1` [Chlorpropamide], the AQP5-HiBiT luminescence came to 1.16.

In the case of `CC(C)(C)c1cc(C(C)(C)C)c(NC(=O)c2c[nH]c3ccccc3c2=O)cc1O` [Ivacaftor (VX-770)], the AQP5-HiBiT luminescence was found to be 1.07.

Take `CNCC[C@H](Oc1cccc2ccccc12)c1cccs1` [Duloxetine hydrochloride]: the AQP5-HiBiT luminescence was determined as 1.12.

As to `COC(=O)N[C@H](C(=O)N1CCC[C@H]1c1ncc(-c2ccc(-c3ccc(-c4cnc([C@@H]5CCCN5C(=O)[C@@H](NC(=O)OC)C(C)C)[nH]4)cc3)cc2)[nH]1)C(C)C`, the AQP5-HiBiT luminescence amounted to 1.29.

`CO[C@H]1C[C@@H]2CC[C@@H](C)[C@@](O)(O2)C(=O)C(=O)N2CCCC[C@H]2C(=O)O[C@H]([C@H](C)C[C@@H]2CC[C@@H](OCCO)[C@H](OC)C2)CC(=O)[C@H](C)/C=C(\C)[C@@H](O)[C@@H](OC)C(=O)[C@H](C)C[C@H](C)/C=C/C=C/C=C/1C` [Everolimus (RAD001)]: the AQP5-HiBiT luminescence was 0.451.

`CCC[C@@H]1C[C@@H](C(=O)N[C@@H]([C@H]2O[C@H](SC)[C@H](O)[C@@H](O)[C@H]2O)[C@@H](C)O)N(C)C1` [Lincomycin hydrochloride monohydrate]: the AQP5-HiBiT luminescence was determined as 0.669.

On to `NC(=O)c1cn(Cc2c(F)cccc2F)nn1` [Rufinamide], for which the AQP5-HiBiT luminescence stood at 0.674.

For the compound `CC[C@H]1OC(=O)[C@H](C)[C@@H](O[C@H]2C[C@@](C)(OC)[C@@H](O)[C@H](C)O2)[C@H](C)[C@@H](O[C@@H]2O[C@H](C)C[C@H](N(C)C)[C@H]2O)[C@](C)(OC)C[C@@H](C)C(=O)[C@H](C)[C@@H](O)[C@]1(C)O` [Clarithromycin], the AQP5-HiBiT luminescence amounted to 0.85.

For `C#C[C@]1(O)CC[C@H]2[C@@H]3CCc4cc(OC)ccc4[C@H]3CC[C@@]21C` [Mestranol], the AQP5-HiBiT luminescence is 1.14.

As to `Oc1ncnc2[nH]ncc12` [Allopurinol], the AQP5-HiBiT luminescence came out at 0.907.

Regarding `CC(=O)[C@H]1CC[C@H]2[C@@H]3CCC4=CC(=O)CC[C@]4(C)[C@H]3CC[C@]12C` [Progesterone], the AQP5-HiBiT luminescence is 0.777.

`CC1(C)O[C@@H]2C[C@H]3[C@@H]4CCC5=CC(=O)C=C[C@]5(C)[C@@]4(F)[C@@H](O)C[C@]3(C)[C@]2(C(=O)CO)O1` [Triamcinolone acetonide]: the AQP5-HiBiT luminescence was found to be 0.599.

For `CCCCc1oc2ccccc2c1C(=O)c1cc(I)c(OCCN(CC)CC)c(I)c1` [Amiodarone hydrochloride], the AQP5-HiBiT luminescence was 1.23.

Consider `Nc1nc(Cl)nc2c1ncn2[C@H]1C[C@H](O)[C@@H](CO)O1` [Cladribine], for which the AQP5-HiBiT luminescence was found to be 0.477.

On to `CC(N)(Cc1ccc(O)c(O)c1)C(=O)O` (stereo unspecified), for which the AQP5-HiBiT luminescence was 1.03.

Turning to `CC1(C)NC(=O)N(c2ccc([N+](=O)[O-])c(C(F)(F)F)c2)C1=O` [Nilutamide], the AQP5-HiBiT luminescence came to 0.906.

As for `CC[C@H](C)C[C@H](C)CCCCCCCCC(=O)N[C@H]1C[C@@H](O)[C@@H](NCCN)NC(=O)[C@@H]2[C@@H](O)CCN2C(=O)[C@H]([C@H](O)CCN)NC(=O)[C@H]([C@H](O)[C@@H](O)c2ccc(O)cc2)NC(=O)[C@@H]2C[C@@H](O)CN2C(=O)[C@H]([C@@H](C)O)NC1=O` [Cancidas], the AQP5-HiBiT luminescence was determined as 0.805.

As to `Cc1ccc(NC(=O)c2ccc(CN3CCN(C)CC3)cc2)cc1Nc1nccc(-c2cccnc2)n1` [Imatinib Mesylate (STI571)], the AQP5-HiBiT luminescence is 1.5.

As to `CC1Cc2ccccc2N1NC(=O)c1ccc(Cl)c(S(N)(=O)=O)c1` (stereo unspecified) [Indapamide], the AQP5-HiBiT luminescence came out at 0.867.

Regarding `C#C[C@]1(O)CC[C@H]2[C@@H]3CCC4=C(CCC(=O)C4)[C@H]3CC[C@@]21C` [Norethynodrel], the AQP5-HiBiT luminescence is 0.836.

For the compound `CCN(CC)C(=O)N1CCN(C)CC1` [Diethylcarbamazine citrate], the AQP5-HiBiT luminescence was 0.899.

For the compound `CC1=C(C(=O)O)N2C(=O)[C@@H](NC(=O)[C@H](N)c3ccccc3)[C@H]2SC1` [Cephalexin], the AQP5-HiBiT luminescence stood at 0.977.

For `O=C1Nc2ccc(Cl)cc2[C@@](C#CC2CC2)(C(F)(F)F)O1` [Efavirenz], the AQP5-HiBiT luminescence was determined as 0.599.

Consider `CCN(CC)CCOC(=O)C1(C2CCCCC2)CCCCC1` [Dicyclomine hydrochloride], for which the AQP5-HiBiT luminescence worked out at 1.09.

For `CO[C@H]1/C=C/O[C@@]2(C)Oc3c(C)c(O)c4c(O)c(c(/C=N/N5CCN(C)CC5)c(O)c4c3C2=O)NC(=O)/C(C)=C\C=C\[C@H](C)[C@H](O)[C@@H](C)[C@@H](O)[C@@H](C)[C@H](OC(C)=O)[C@@H]1C` [Rifampicin], the AQP5-HiBiT luminescence turned out to be 0.876.

As for `CC(CCc1ccccc1)NCC(O)c1ccc(O)c(C(N)=O)c1` (stereo unspecified) [Labetalol hydrochloride], the AQP5-HiBiT luminescence came out at 0.89.

For `COc1cc(Nc2c(C#N)cnc3cc(OCCCN4CCN(C)CC4)c(OC)cc23)c(Cl)cc1Cl` [Bosutinib], the AQP5-HiBiT luminescence worked out at 0.927.

Take `Cc1ccc(Sc2ccccc2N2CCNCC2)c(C)c1`: the AQP5-HiBiT luminescence turned out to be 1.17.

Consider `OCCOCCN1CCN(C(c2ccccc2)c2ccc(Cl)cc2)CC1` (stereo unspecified) [Hydroxyzine 2hydrochloride], for which the AQP5-HiBiT luminescence was determined as 0.919.

With `C[C@]12CCC3=C4CCC(=O)C=C4CC[C@H]3[C@@H]1CC[C@@]2(O)CC#N` [Dienogest], the AQP5-HiBiT luminescence turned out to be 0.53.

Turning to `Nc1ccn([C@@H]2O[C@H](CO)[C@@H](O)[C@@H]2O)c(=O)n1` [Cytarabine], the AQP5-HiBiT luminescence was found to be 0.854.

Turning to `Cc1ncc(C[n+]2csc(CCO)c2C)c(N)n1` [Thiamine hydrochloride], the AQP5-HiBiT luminescence amounted to 1.01.

For `Clc1ccc2c(c1)CCc1cccnc1C2=C1CCNCC1` [Desloratadine], the AQP5-HiBiT luminescence was 1.6.

As to `N#Cc1ccc2[nH]cc(CCCCN3CCN(c4ccc5oc(C(N)=O)cc5c4)CC3)c2c1` [Vilazodone], the AQP5-HiBiT luminescence was found to be 2.57.

On to `NC(=O)N/N=C/c1ccc([N+](=O)[O-])o1` [Furacilin], for which the AQP5-HiBiT luminescence was 0.826.

As for `CC1=C(C(=O)O)N2C(=O)[C@@H](NC(=O)[C@H](N)c3ccc(O)cc3)[C@H]2SC1` [Cefadroxil], the AQP5-HiBiT luminescence stood at 0.75.

Regarding `O=S(=O)(O)CCSSCCS(=O)(=O)O` [Dimesna], the AQP5-HiBiT luminescence stood at 0.661.
